Assay results from patent US5589568A (priority 1994, dated 1996).
Like-named read-outs stand apart in the source and are kept apart here. Not every detail of the peptide structures is certain; ends, links or a residue may be inferred. Some compounds share one wording; it may come from a single statement. Where no end group is shown, it is not given here.

What was measured:
Gs = Gs (Homo sapiens, UniProt P63092); assay: steady state GTPase activity of Gs; type: biochemical
In short: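 Steady-state GTP hydrolysis by Gs was run in buffer without detergent, with 1.1 mM MgSO4 and the specified nucleotide, and free Mg^2+ set with EDTA buffers where needed. Activity is expressed as molar turnover number. Apparent affinity and efficacy were estimated from the EC50 and the maximal turnover number of GTPase activity.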

Go = molecular target: T1, Go (Bos taurus, UniProt P08239); assay: steady state GTPase activity of Go in phospholipid vesicles; type: biochemical, bovine; conditions: for Goo ef. (apparent efficacy, maximum turnover number of GTPase activity): Table IV; for Go ef. (apparent efficacy, maximum turnover number of GTPase activity): Table VI, receptor-based peptides
T1 construct: proteins were extracted from bovine cerebral cortical membranes; from tissue; host or cells: bovine brain (cerebral cortical membranes)

Gi = assay: steady state GTPase activity of Gi in phospholipid vesicles; type: biochemical, rabbit; conditions: for change of the selectivity of mastoparan between Gi and Go: initial screen of modified mastoparan congeners, Gi versus Go
[1] = Table IV, read-out: G1 af. (apparent affinity, estimated by EC50 of GTPase activity)
[2] = Table VI, receptor-based peptides
[3] = Table VI, receptor-based peptides, read-out: Gi af. (apparent affinity, estimated by EC50 of GTPase activity)

Sequence of Gs (P63092 whole entry): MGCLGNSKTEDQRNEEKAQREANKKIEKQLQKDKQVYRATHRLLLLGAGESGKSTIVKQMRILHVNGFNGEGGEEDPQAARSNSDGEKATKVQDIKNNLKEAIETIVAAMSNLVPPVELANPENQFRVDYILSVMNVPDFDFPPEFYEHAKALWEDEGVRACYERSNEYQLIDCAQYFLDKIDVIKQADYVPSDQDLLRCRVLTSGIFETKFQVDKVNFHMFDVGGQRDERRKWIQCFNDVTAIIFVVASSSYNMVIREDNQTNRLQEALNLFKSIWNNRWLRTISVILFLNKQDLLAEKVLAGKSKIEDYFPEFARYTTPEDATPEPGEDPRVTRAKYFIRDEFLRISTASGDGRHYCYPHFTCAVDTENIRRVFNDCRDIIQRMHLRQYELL
T1 sequence (P08239 2-354 limits assumed): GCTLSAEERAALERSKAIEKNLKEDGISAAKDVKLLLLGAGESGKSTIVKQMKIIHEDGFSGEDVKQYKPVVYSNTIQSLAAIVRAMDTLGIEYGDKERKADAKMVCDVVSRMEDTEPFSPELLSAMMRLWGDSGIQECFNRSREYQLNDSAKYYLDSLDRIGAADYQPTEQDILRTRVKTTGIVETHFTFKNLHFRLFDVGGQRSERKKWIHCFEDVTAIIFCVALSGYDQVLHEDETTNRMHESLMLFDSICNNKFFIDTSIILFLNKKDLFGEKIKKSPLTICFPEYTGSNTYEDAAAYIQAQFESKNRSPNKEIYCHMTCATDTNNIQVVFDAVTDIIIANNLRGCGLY
T1 sequence (P62871 2-340 partner limits assumed): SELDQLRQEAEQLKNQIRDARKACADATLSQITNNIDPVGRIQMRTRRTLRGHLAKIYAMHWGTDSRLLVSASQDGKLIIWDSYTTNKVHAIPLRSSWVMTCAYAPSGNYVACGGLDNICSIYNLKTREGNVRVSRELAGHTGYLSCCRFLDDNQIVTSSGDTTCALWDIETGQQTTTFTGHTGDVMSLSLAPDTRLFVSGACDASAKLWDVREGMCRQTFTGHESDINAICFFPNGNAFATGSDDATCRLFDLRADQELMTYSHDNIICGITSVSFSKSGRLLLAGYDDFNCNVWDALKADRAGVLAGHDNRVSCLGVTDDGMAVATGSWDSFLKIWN
T1 sequence (P63212 2-68 partner limits assumed): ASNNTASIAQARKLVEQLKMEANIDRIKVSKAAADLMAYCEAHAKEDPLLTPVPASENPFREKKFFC

Substance | Gs ef. (apparent efficacy, maximum turnover number of GTPase activity) (Gs; Table IV) | Goo ef. (apparent efficacy, maximum turnover number of GTPase activity) (Go) | G1 ef. (apparent efficacy, maximum turnover number of GTPase activity) (Gi; Table IV) | EC50 (Gi; [1]) | change of the selectivity of mastoparan between Gi and Go (Gi) | Gs ef. (apparent efficacy, maximum turnover number of GTPase activity) (Gs; [2]) | Go ef. (apparent efficacy, maximum turnover number of GTPase activity) (Go) | Gi ef. (apparent efficacy, maximum turnover number of GTPase activity) (Gi; [2]) | EC50 (Gi; [3]) | effect on Gs (in words) (Gs)
INLKAAAALAKKLL-NH2 [MAS16] | F (Fair (F): 2-5 fold) | E (Excellent (E): 30-10 fold) | G (Good (G): 5-10 fold) | 30 to 100 µM | less than 5 fold | – | – | – | – | –
INLKAFAALAKKLL-NH2 [MAS23] | F (Fair (F): 2-5 fold) | E (Excellent (E): 30-10 fold) | E (Excellent (E): 30-10 fold) | 10 to 30 µM | – | – | – | – | – | –
INLKAIAAFAKKLL-NH2 [MP-T, reference compound] | F (Fair (F): 2-5 fold) | E (Excellent (E): 30-10 fold) | E (Excellent (E): 30-10 fold) | 3 to 10 µM | – | – | – | – | – | –
INLKALAAAAKKLL-NH2 [MAS12] | F (Fair (F): 2-5 fold) | E (Excellent (E): 30-10 fold) | G (Good (G): 5-10 fold) | 30 to 100 µM | – | – | – | – | – | –
INLKALAAKAKKLL-NH2 [MAS13] | F (Fair (F): 2-5 fold) | G (Good (G): 5-10 fold) | G (Good (G): 5-10 fold) | 30 to 100 µM | – | – | – | – | – | –
INLKALAALAAALL-NH2 [ER5] | F (Fair (F): 2-5 fold) | E (Excellent (E): 30-10 fold) | S (Super (S): more than 30-fold) | 10 to 30 µM | – | – | – | – | – | –
INLKALAALAKKLA-NH2 [MAS04] | F (Fair (F): 2-5 fold) | E (Excellent (E): 30-10 fold) | G (Good (G): 5-10 fold) | 10 to 30 µM | less than 5 fold | – | – | – | – | –
INLKALAALAKNLL-NH2 [ER20] | F (Fair (F): 2-5 fold) | E (Excellent (E): 30-10 fold) | E (Excellent (E): 30-10 fold) | 10 to 30 µM | – | – | – | – | – | –
INLKALAALAQALL-NH2 [ER3] | F (Fair (F): 2-5 fold) | E (Excellent (E): 30-10 fold) | S (Super (S): more than 30-fold) | 10 to 30 µM | – | – | – | – | – | –
INLKALAALARALL-NH2 [ER2] | F (Fair (F): 2-5 fold) | E (Excellent (E): 30-10 fold) | S (Super (S): more than 30-fold) | 3 to 10 µM | – | – | – | – | – | –
INLKALAALARKLL-NH2 [MAS10] | F (Fair (F): 2-5 fold) | E (Excellent (E): 30-10 fold) | E (Excellent (E): 30-10 fold) | 10 to 30 µM | – | – | – | – | – | –
INLKALAALKKALL-NH2 [ER25] | F (Fair (F): 2-5 fold) | E (Excellent (E): 30-10 fold) | E (Excellent (E): 30-10 fold) | 10 to 30 µM | – | – | – | – | – | –
INLKALKALAKALL-NH2 [ER10] | F (Fair (F): 2-5 fold) | S (Super (S): more than 30-fold) | S (Super (S): more than 30-fold) | 3 to 10 µM | – | – | – | – | – | –
INLKALKALAKKLL-NH2 [MAS15] | F (Fair (F): 2-5 fold) | E (Excellent (E): 30-10 fold) | G (Good (G): 5-10 fold) | 10 to 30 µM | – | – | – | – | – | –
INLKKLAALAKKLL-NH2 [MAS18] | F (Fair (F): 2-5 fold) | E (Excellent (E): 30-10 fold) | G (Good (G): 5-10 fold) | 10 to 30 µM | – | – | – | – | – | –
INLQALAALAKALL-NH2 [ER8] | F (Fair (F): 2-5 fold) | S (Super (S): more than 30-fold) | S (Super (S): more than 30-fold) | 3 to 10 µM | – | – | – | – | – | –

Substance | Gs ef. (apparent efficacy, maximum turnover number of GTPase activity) (Gs; Table IV) | Goo ef. (apparent efficacy, maximum turnover number of GTPase activity) (Go) | G1 ef. (apparent efficacy, maximum turnover number of GTPase activity) (Gi; Table IV) | EC50 (Gi; [1]) | change of the selectivity of mastoparan between Gi and Go (Gi) | Gs ef. (apparent efficacy, maximum turnover number of GTPase activity) (Gs; [2]) | Go ef. (apparent efficacy, maximum turnover number of GTPase activity) (Go) | Gi ef. (apparent efficacy, maximum turnover number of GTPase activity) (Gi; [2]) | EC50 (Gi; [3]) | effect on Gs (in words) (Gs)
INLQALAALAQALL-NH2 [ER9] | F (Fair (F): 2-5 fold) | G (Good (G): 5-10 fold) | F (Fair (F): 2-5 fold) | > 100 µM | – | – | – | – | – | –
INLQALKALAKALL-NH2 [ER11] | F (Fair (F): 2-5 fold) | E (Excellent (E): 30-10 fold) | S (Super (S): more than 30-fold) | 3 to 10 µM | – | – | – | – | – | –
INLRALAALAKALL-NH2 [ER6] | F (Fair (F): 2-5 fold) | E (Excellent (E): 30-10 fold) | S (Super (S): more than 30-fold) | 3 to 10 µM | – | – | – | – | – | –
INLRALAALAKKLL-NH2 [MAS20] | F (Fair (F): 2-5 fold) | E (Excellent (E): 30-10 fold) | E (Excellent (E): 30-10 fold) | 3 to 10 µM | – | – | – | – | – | –
INLRALAALARALL-NH2 [ER7] | F (Fair (F): 2-5 fold) | S (Super (S): more than 30-fold) | S (Super (S): more than 30-fold) | 3 to 10 µM | – | – | – | – | – | –
INLRALAALRRRLL-NH2 [ER28] | P (Poor (P): less than 2 fold) | G (Good (G): 5-10 fold) | F (Fair (F): 2-5 fold) | 10 to 30 µM | – | – | – | – | – | –
INLRALRALARALL-NH2 [ER24] | F (Fair (F): 2-5 fold) | E (Excellent (E): 30-10 fold) | S (Super (S): more than 30-fold) | 3 to 10 µM | – | – | – | – | – | –
INWRAWRAWARAWL-NH2 [ER27] | P (Poor (P): less than 2 fold) | P (Poor (P): less than 2 fold) | G (Good (G): 5-10 fold) | 3 to 10 µM | – | – | – | – | – | –
INYKALAACAKKIL-NH2 [ER14] | F (Fair (F): 2-5 fold) | E (Excellent (E): 30-10 fold) | E (Excellent (E): 30-10 fold) | 10 to 30 µM | – | – | – | – | – | –
INYKALAALAKALC-NH2 [ER17] | F (Fair (F): 2-5 fold) | E (Excellent (E): 30-10 fold) | E (Excellent (E): 30-10 fold) | 3 to 10 µM | – | – | – | – | – | –
INYKALCALAKKIL-NH2 [ER15] | F (Fair (F): 2-5 fold) | G (Good (G): 5-10 fold) | G (Good (G): 5-10 fold) | 10 to 30 µM | – | – | – | – | – | –
IQLKALAALAKALL-NH2 [ER12] | F (Fair (F): 2-5 fold) | E (Excellent (E): 30-10 fold) | S (Super (S): more than 30-fold) | 3 to 10 µM | – | – | – | – | – | –
IVYREAKEQIRKIDRVL-NH2 [ER22] | – | – | – | – | – | F (Fair (F): 2-5 fold) | F (Fair (F): 2-5 fold) | F (Fair (F): 2-5 fold) | 30 to 100 µM | –
IVYREAKEQIRKIL-NH2 [ER23] | – | – | – | – | – | F (Fair (F): 2-5 fold) | F (Fair (F): 2-5 fold) | F (Fair (F): 2-5 fold) | 30 to 100 µM | –
REHKALKTLGIIC-NH2 [ER40] | – | – | – | – | – | F (Fair (F): 2-5 fold) | P (Poor (P): less than 2 fold) | P (Poor (P): less than 2 fold) | > 100 µM | significant Gs -specific action
